The whole screen tested about 120,000 compounds, of which about 5,300 (4.4%) were called active. Inconclusive results, whose numbers are uncertain, are shown with a selection of clear calls. Calls follow the shape of the dose curve; as a rule, active = well fitted inhibition curve with a large enough effect; inconclusive = small, poorly fitted or top-dose-only effect; inactive = no such curve, though single readings can be large or run the other way. Potencies beside an inconclusive call are fits to weak or partial responses and may not hold up.
experiment: qHTS Primary assay for Inhibitors of Plasmodium falciparum Dd2 growth in vitro; also: nearly all actives have a fitted effect of over 65% in size;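 as to activity, negative = inhibition: plate controls were DMSO vehicle for no effect and reference drug for full effect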; conditions: P. falciparum Dd2 growth, SYBR Green, 72 h; activity, negative = inhibition: at 28.9 µM (top of the series) unless noted; series mostly up to 28.9 µM
Procedure, shortened: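 Readout: SYBR Green fluorescence, 485 nm excitation, 535 nm emission, after ~16 h lysis at 37C. Before that, Dd2-infected red cells (2.5% hematocrit) grew 72 h with compound, 29 uM top final concentration.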
Potency is read from the fitted curve at half-maximal effect; tags tell the direction and shape of the fitted curve.

**Q.** With Cc1ccc(CNC2(Cc3cc(-c4ccccn4)on3)COC2)o1 as the compound, how does the “activity, negative = inhibition” value read?
**A.** The value was inactive: 3.46% [at 44.1 µM].

**Q.** For CC(C)CCNC(=O)CSc1c2c(nc3ccc(Cl)cc13)CCCC2, which Potency is on record?
**A.** The Potency was inconclusive: 17.8 µM [inhibitor, single point].

**Q.** Which “outcome” value does the source give for Cc1cc(NC(=O)C2CCN(C(=O)c3ncn4c3COC(c3ccc(F)cc3)C4)CC2)ccc1Cl (centres undefined) here?
**A.** Its value is “inactive”.

**Q.** For CCOc1ccccc1C1NC(=O)N(CC(=O)NC2CCCCC2)C2=C1C(=O)OC2 (centres undefined), which Potency is on record?
**A.** The Potency was inconclusive: 7.08 µM [inhibitor, partial curve, poor fit].

**Q.** With CN1C(=O)C(CC(=O)N2CCNCC2)(Cc2ccccc2)c2ccccc21 (centres undefined) as the compound, how does the “activity, negative = inhibition” value read?
**A.** The value was inactive: -14.6%.

**Q.** Which “activity, negative = inhibition” value does the source give for COc1ccc(-c2ccnc(N[C@H]3CO[C@H]4[C@@H]3OC[C@H]4OC(=O)Nc3cccc(C(C)=O)c3)n2)cc1 here?
**A.** Its value is inactive: -27.7%.

**Q.** Which Potency does the source give for Cc1ccc(S(=O)(=O)NC[C@H]2O[C@H](Cc3cc(-c4cccc(O)c4)on3)CC[C@@H]2O)cc1 here?
**A.** Its Potency is inconclusive: 1.12 µM [inhibitor, full curve].

**Q.** Which “activity, negative = inhibition” value does the source give for CCCCn1cc(S(=O)(=O)c2ccc(OC)cc2)c(=O)c2cc(F)c(F)cc21 here?
**A.** Its value is inactive: 0.825%.

**Q.** With O=C(Cn1nc2c(cc1=O)CCCCC2)NC1CCN(Cc2ccc(F)cc2)CC1 as the compound, how does the Potency read?
**A.** Its Potency is inconclusive: 15.8 µM [inhibitor, single point].

**Q.** Which “activity, negative = inhibition” value does the source give for CCN(C)C(=O)Cn1c(Cc2ccccc2)nn(-c2ccccc2OC)c1=O here?
**A.** The value was inactive: -12.6%.

**Q.** With CC(C)c1ccc(CN2CCc3ncc(C(=O)NCc4ccccc4)n3CC2)cc1 as the compound, how does the Potency read?
**A.** Its Potency is inconclusive: 31.6 µM [inhibitor, single point].

**Q.** With CN(CCc1ccccn1)C[C@H]1CN2CC[C@H]1C[C@@H]2CNC(=O)c1ccccc1 as the compound, how does the Potency read?
**A.** Its Potency is inconclusive: 17.8 µM [inhibitor, single point].

**Q.** With NC(=O)C1CCN(CC[C@H]2CN(C(=O)Nc3ccc(C(F)(F)F)cc3)CC[C@H]2CC(=O)O)CC1 as the compound, how does the “activity, negative = inhibition” value read?
**A.** Its value is inactive: 1%.

**Q.** For CCCC(O)c1nc2ccccc2n1CCCCOc1ccc(OC)cc1 (centres undefined), which Potency is on record?
**A.** Its Potency is inconclusive: 2 µM [inhibitor, full curve, poor fit].

**Q.** For Cc1cc(C)cc(NC(=O)CSc2nncn3c2cc2occc23)c1, which Potency is on record?
**A.** Its Potency is inconclusive: 12.6 µM [inhibitor, partial curve].

**Q.** With COc1cccc(CN2CC(Oc3ccccc3C(=O)NC3CC3)C2)c1 as the compound, how does the Potency read?
**A.** Its Potency is inconclusive: 8.91 µM [inhibitor, partial curve, poor fit].

**Q.** With COc1ccc2[nH]c3c(c2c1)CCN(C)C31CCN(C(=O)Cc2ccncc2)CC1 as the compound, how does the “outcome” value read?
**A.** The value was “inactive”.

**Q.** With COc1ccc(CNC(=O)C2CCN(c3nc4ccc(C)cc4[nH]3)CC2)cc1 as the compound, how does the Potency read?
**A.** The Potency was inconclusive: 12.6 µM [inhibitor, single point].

**Q.** With CCn1c2c(c(=O)n3ncc(C(=O)Nc4cccc(Cl)c4C)c13)CN(Cc1ccc(OC)cc1)CC2 as the compound, how does the Potency read?
**A.** The Potency was inconclusive: 12.6 µM [inhibitor, partial curve, poor fit].
